Reference: the RNAGym collection of RNA variant scans (doi:10.1073/pnas.2313332121)
Variants at the floor of the assay are shown more often than the library holds them.

B1: TPR 5TU (parent)
chain: GGAUCUUCUCGAUCUAACAAAAAAGACAAAUCUGCCACAAAGCUUGAGAGCAUCUUCGGAUGCAGAGGCGGCAGCCUUCGGUGGCGCGAUAGCGCCAACGUUCUCAACUAUGACACGCAAAACGCGUGCUCCGUUGAAUGGAGUUUAUCAUG

Variants of: B1
Experiment: polymerase ribozyme fitness, log enrichment relative to wild type (log ratio); higher = more active; in vitro selection for triplet polymerase activity
In short: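 A heterodimeric triplet polymerase ribozyme had each of its subunits mutagenized by PCR into a library, which was transcribed. One round of in vitro selection, done in triplicate, annealed each library with a biotinylated primer, its partner subunit and triplets, then incubated it frozen at −7 °C before gel excision of extended constructs, streptavidin-bead capture and RT-PCR. Fitness is the logarithm of genotype enrichment relative to wild-type enrichment, based on Illumina sequencing of inputs and outputs and inverse-variance-weighted replicate averages. A base-2 logarithm is used, and genotypes were kept only with ≥10 input reads and ≥1 read per output.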

Variant	polymerase ribozyme fitness (log ratio)
A20U C32A G50A C93G	≤ -4.2
A20U A21U A37C C96A A121G	-1.8
A20C A41C U55C C93G C99U U102G	≤ -4.2
A20G G68U G70C C76G C116U	≤ -4.2
A20U G48U G65A A91C G92A A120G A121U U130A	≤ -4.2
A20C A113U U127A	≤ -4.2
A20U G50U C51U G74C G88A	≤ -4.2
A20U A40G C63G G81C A113U A115C A138G	≤ -4.2
A20G C51G G88A C93A U127C C131A U139G	≤ -4.2
A20G C32G A52C U55A	≤ -4.2
A20C A28U A49C U61A G92A A113G C149G	≤ -4.2
A20G C35G A49C A73G C87G	≤ -4.2
A20C U144G	0.273
A20C U55A A110G	-3.9
A20C A23G G59U C87G C149U	≤ -4.2
A20G C76A U90G A97G G136C	≤ -4.2
A20U C27G A28G G50A C93G G152U	≤ -4.2
A20U A40U G84A A119U G136U	≤ -4.2
A20U G46A C54U G70A U77G C85A C108G C116G	≤ -4.2
A20U C57U G68A C72U G92A	≤ -4.2
A20G G59C G94C	-0.672

Variant	polymerase ribozyme fitness (log ratio)
A20G A28U G42C A49C C93G C103A	≤ -4.2
A20U C38G C57U G86A	-3.63
A20U A113U	-3.74
A20C U31G U53A U55G A115C	-2.82
A20G A39G A89C A97U G126A A147G	≤ -4.2
A20G A52C A119U A121U G143C	≤ -4.2
A20U A41U G48A A49G C96G A106G A107G U135G	≤ -4.2
A20C C54G C93U C108A	≤ -4.2
A20U C27A A30U C76A C85U A110G G117U	≤ -4.2
A20G A28C A30G C54U A73G C93A C95U G100U C123U U127C U144C	≤ -4.2
A20G C38G C69U G86U A91U C99G A137G	≤ -4.2
A20U A30U U61G A73G U78C A122U	≤ -4.2
A20G C75A G80C C93G A98U C108G G117A	≤ -4.2
A20U A122U U144G	-0.756
A20C G48A C76G C149G	≤ -4.2
A20C A28G A29U A40U C149G	≤ -4.2
A20U C75G C93U C95U A98G	≤ -4.2
A20G A24C U45G G58A A122G C131G	≤ -4.2
A20U C96U A98G	-1.71
A20C G46U G68A C76G G84A	≤ -4.2
A20C A28G A29U G59U A64G A113C C149G	≤ -4.2

Variant	polymerase ribozyme fitness (log ratio)
A20U A29G A52G A89U C96A	≤ -4.2
A20C A28U U44A A49C G143A	≤ -4.2
A20G A30U G83A A110C U148C	≤ -4.2
A20G G84A C116A C118G A121U	≤ -4.2
A20U A28U A39U G83A G141A	-4.1
A20C C57G C105G C149A	≤ -4.2
A20U C96U U101A U102A	≤ -4.2
A20U A41C G48A C87G A113U G141U	≤ -4.2
A20C A41G U55C A60G G83U G84C C93U	≤ -4.2
A20G A22U G70U C85G A110U A121C	≤ -4.2
A20U A26C U33C G42U A91C U102C C108U G126A	≤ -4.2
A20C C85U G86U C93A A119U A121G	-1.77
A20G G34A C118G A121C	-3.83
A20C U56A A64C G65C U101G C132U G133U	≤ -4.2
A20C A52C G68U C87A C99U	≤ -4.2
A20U C27U A49C A64C U134A U135C A137U	≤ -4.2
A20C U55A A89G G94C C95A C108G C123G	≤ -4.2
A20U A28C U55A C85U G140U	≤ -4.2
A20U A49U C93G C103U	≤ -4.2
A20U A49C G50C G92U U146G C149U	≤ -4.2
A20G A60G G81A G92C G126A U139C U144G	≤ -4.2

Variant	polymerase ribozyme fitness (log ratio)
A20G A40C A41U U56A C79U G86A C87A	≤ -4.2
A20C A52C C79G	≤ -4.2
A20U A60C C63G A73G C93A A119U A137G U139G	≤ -4.2
A20G G117A	-0.0564
A20G G68U G126U C132A	≤ -4.2
A20G C75A U78A C93U C96G G141A	≤ -4.2
A20C A60G G88A A142U	≤ -4.2
A20C G25U C43A U56A G86A C95A A122G	≤ -4.2
A20U C32U A49U U55G G65C G88A G128U	≤ -4.2
A20G A41G C54G G80C C93U G117A	≤ -4.2
A20U A40C G80C C93U A110U	≤ -4.2
A20U A49U C51U C57A A89U G92C A98C U148C	≤ -4.2
A20G A91G U146A	-3.96
A20G A29C C43G C63A G86A U90G C125U	≤ -4.2
A20U A41G A49U A52C G86C C96G	≤ -4.2
A20U C35U C87U C99U G141C	≤ -4.2
A20G A30U A49C C69U C93U A110U A138G	≤ -4.2
A20C G74U C108G C132A	≤ -4.2
A20C A37C A40C G58C C95U	-4.12
A20U A47G G50U C85G	-3.77
A20G G25A A52G G74A C75U G83A C125G G133U	≤ -4.2
